This note sets out measurements from the supplement of paper PMC7726561.

In all, about 1,100 sequences were measured (“thermal melting temperature (Tm) of peptide-HLA complex”: median about 58, lowest 2% from about 42 on). The list shows a part of the results.
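Also: cell lysates heated 10 min at 37–73 °C, remaining pHLA pulled down with pan-class I antibody, peptides quantified by DIA-MS versus 37 °C, Tm where half the complex is lost.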

In this assay the target is HLA-A*02:01. The assay is described as follows: thermal melting temperature (Tm) of peptide-HLA complex; higher = more thermostable pHLA complex. Conditions: C1R-A*02:01.
Turning to NLIPILKTV, the thermal melting temperature amounted to 56 °C. Then LLRDGIELV, with 57.8 °C. In turn, GLLAGDRLVEV showed a thermal melting temperature of 63.6 °C. For ALKPDLVNV, the thermal melting temperature stood at 59.1 °C. Then RLQETEGMVAV, with 55.6 °C.

In the case of ALADFAELLRA, the thermal melting temperature came out at 62 °C. Regarding FLRNINEYL, the thermal melting temperature came out at 62.3 °C. With HLLEEPIYL, the thermal melting temperature is 63 °C. SLIDGYYRL returned a thermal melting temperature of 61.3 °C. SLDDLLTNV registered a thermal melting temperature of 54.9 °C. Sequence KLKPGDLVGV yielded a thermal melting temperature of 44.4 °C. Sequence AMLTVLHEI showed a thermal melting temperature of 61.6 °C. FLSNDTVQL: the thermal melting temperature came to 57.4 °C.

ALMPVLNQV yielded a thermal melting temperature of 58.7 °C. Regarding RLIPTLVSI, the thermal melting temperature was determined as 47.4 °C. In the case of ALLKIEGVYA it was 59.4 °C; in that of VLLDHLSLA, 56.9 °C.

On to LLIDDKGTIKL, for which the thermal melting temperature came to 60.9 °C. Then KLADDVDLEQV, with 57.4 °C. Then HILDFSPSL, with 57 °C. In the case of FQVDEIYTV it was 56 °C; in that of FLAEEGFYKF, 44 °C. Sequence TLLGNIHAV showed a thermal melting temperature of 59.5 °C. FMTTNVPNV yielded a thermal melting temperature of 59.6 °C. FMDPQKMPYL: the thermal melting temperature was 52.9 °C. Sequence FLPDPSALQNL came in with a thermal melting temperature of 55 °C.

The sequence KLVELPYTV came in with a thermal melting temperature of 61.1 °C. Then SLIRSVVAL, with 60.6 °C.

Turning to VIIKGLEEITV, the thermal melting temperature turned out to be 47.1 °C. In the case of FLDITNPKA it was 58.3 °C; in that of KLLDISELDMV, 56.9 °C; in that of ILDSRGNPTV, 59.4 °C. In the case of ALAAALAHI, the thermal melting temperature amounted to 61.1 °C.

In turn, ALLDSAHLL displayed a thermal melting temperature of 61.1 °C. The sequence QQLDSKFLEQV gave a thermal melting temperature of 54.3 °C. Regarding VLYENALKL, the thermal melting temperature is 59.3 °C. Then NLLDDRGMTAL, with 52.3 °C. In the case of ALLKDSIVQL it was 40.9 °C. Then ILSKDGVLYV, with 59.8 °C; and ALILEPSLYTV, with 56.2 °C; and LLYDQPLQV, with 63.3 °C.

Regarding NMYGKVVTV, the thermal melting temperature stood at 58.1 °C. In the case of QLAPVFQRV it was 54.3 °C; in that of GLAKLIADV, 60.9 °C; in that of RLLEYTPTA, 61.1 °C. Then LLSDVRFVL, with 54.8 °C; and RIADGLPVAV, with 41 °C; and TLDEYTTRV, with 52.2 °C. As to AMNISVPQV, the thermal melting temperature came to 58.1 °C. In the case of ALWVSQPPEI it was 59.2 °C; in that of VLYPASPHGV, 62.3 °C.

In the case of VLPVPPLSV, the thermal melting temperature is 50.3 °C.

For LILDPIFKV, the thermal melting temperature amounted to 50.4 °C. VLYGGLLEHL: the thermal melting temperature was 61.4 °C. In the case of FLADIVQKL it was 60.2 °C; in that of SLLTSPPKA, 50.6 °C.
